The test system of test [1] is RS4;11 cells. Kind of test: cells. As to conditions: Homo sapiens.
In test [2] the test system is Molt-4 cells. Kind of test: cells. As to conditions: Homo sapiens.
The mark [3] stands for this setting: RS4-11, 48 h, read-out: Cellular activity (IC50, nM) RS4;11.
The mark [4] stands for this setting: RS4-11, read-out: Celluclar activity (IC50, nM) RS 4, 11.
Where [5] appears, read: MOLT-4, read-out: Celluclar activity (IC50, nM) Molt-4.
Setting [6] is: MOLT-4, read-out: Cellular activity (IC50, nM) Molt-4.
The mark [7] stands for this setting: RS4-11, 48 h, read-out: Cellular activity (IC50, nM) RS4, 11.

Molecules are shown by their SMILES. Where two headings read alike, the source gives them in different places.

`CC(C)c1ccccc1[C@@H]1CCCN1C1CC2(C1)CN(c1ccc(C(=O)NS(=O)(=O)c3ccc(NC[C@H]4CC[C@](C)(O)CC4)c([N+](=O)[O-])c3)c(Oc3cnc4[nH]ccc4c3)c1)C2` [Example F109, 2-((1H-pyrrolo[2,3-b]pyridin-5-yl)oxy)-N-((4-((((1r,4r)-4-hydroxy-4-methylcyclohexyl)methyl)amino)-3-nitrophenyl)sulfonyl)-4-(6-((S)-2-(2-isopropylphenyl)pyrrolidin-1-yl)-2-azaspiro[3.3]heptan-2-yl)benzamide]: the half-inhibitory concentration (IC50) in test [1] (setting [3]) is 1.2 nM; in test [1] (setting [4]), 1.2 nM; in test [2] (setting [5]), 3850 nM; in test [2] (setting [6]), 3850 nM.
As to `COC1CC(c2ccccc2C2CC2)N(c2ccc(-c3ccc(C(=O)NS(=O)(=O)c4ccc(NCC5CCOCC5)c([N+](=O)[O-])c4)c(Oc4cnc5[nH]ccc5c4)c3)cc2)C1` (stereo not drawn) [Example A75, 3-((1H-pyrrolo[2,3-b]pyridin-5-yl)oxy)-4′-(2-(2-cyclopropylphenyl)-4-methoxypyrrolidin-1-yl)-N-((3-nitro-4-(((tetrahydro-2H-pyran-4-yl)methyl)amino)phenyl)sulfonyl)-[1,1′-biphenyl]-4-carboxamide], the IC50 in test [1] (setting [7]) was determined as 61 nM; in test [2] (setting [6]) it was 5340 nM.
On to `O=C(NS(=O)(=O)c1ccc(NCCC2CCOCC2)c([N+](=O)[O-])c1)c1ccc(N2CCC3(CC2)CC(N2CCC[C@H]2c2ccccc2C2CC2)C3)cc1Oc1cnc2[nH]ccc2c1` [Example F116, (S)-2-((1H-pyrrolo[2,3-b]pyridin-5-yl)oxy)-4-(2-(2-(2-cyclopropylphenyl)pyrrolidin-1-yl)-7-azaspiro[3.5]nonan-7-yl)-N-((3-nitro-4-((2-(tetrahydro-2H-pyran-4-yl)ethyl)amino)phenyl)sulfonyl)benzamide], for which the IC50 in test [1] (setting [3]) was found to be 5.4 nM; in test [2] (setting [6]) it was 4710 nM.
On to `CS(=O)(=O)N1CCOC(CNc2ccc(S(=O)(=O)NC(=O)c3ccc(C4=CCC(N5CCCC5c5ccccc5C5CC5)CC4)cc3Oc3cnc4[nH]ccc4c3)cc2[N+](=O)[O-])C1` (stereo not drawn) [Example G113, 3-((1H-pyrrolo[2,3-b]pyridin-5-yl)oxy)-4′-(2-(2-cyclopropylphenyl)pyrrolidin-1-yl)-N-((4-(((4-(methylsulfonyl)morpholin-2-yl)methyl)amino)-3-nitrophenyl)sulfonyl)-2′,3′,4′,5′-tetrahydro-[1,1′-biphenyl]-4-carboxamide], for which the IC50 is 124 nM in test [1] (setting [7]) and greater than 10000 nM in test [2] (setting [6]).
For the compound `O=C(NS(=O)(=O)c1ccc(NCC2CCOCC2)c([N+](=O)[O-])c1)c1ccc([C@H]2CC[C@H](N3CC(N4CCCC4c4ccccc4C4CC4)C3)CC2)cc1Oc1cnc2[nH]ccc2c1` (relative stereo) [Example D107b, 2-((1H-pyrrolo[2,3-b]pyridin-5-yl)oxy)-4-(trans-4-(3-(2-(2-cyclopropylphenyl)pyrrolidin-1-yl)azetidin-1-yl)cyclohexyl)-N-((3-nitro-4-(((tetrahydro-2H-pyran-4-yl)methyl)amino)phenyl)sulfonyl)benzamide], the IC50 in test [1] (setting [3]) was 187 nM; in test [2] (setting [6]), greater than 10000 nM.
For `O=C(NS(=O)(=O)c1ccc(NCC2(F)CCOCC2)c([N+](=O)[O-])c1)c1ccc(N2CCC3(CC2)CC(N2CCC[C@H]2c2ccccc2C2CC2)C3)cc1Oc1cnc2[nH]ccc2c1` [Example F22, (S)-2-((1H-pyrrolo[2,3-b]pyridin-5-yl)oxy)-4-(2-(2-(2-cyclopropylphenyl)pyrrolidin-1-yl)-7-azaspiro[3.5]nonan-7-yl)-N-((4-(((4-fluorotetrahydro-2H-pyran-4-yl)methyl)amino)-3-nitrophenyl)sulfonyl)benzamide], the half-maximal inhibitory concentration (IC50) in test [1] (setting [3]) came out at 1.3 nM; in test [1] (setting [4]) it was 1.3 nM; in test [2] (setting [5]), 2820 nM; in test [2] (setting [6]) it was 2820 nM.
For `O=C(NS(=O)(=O)c1ccc(NC[C@H]2CCN(C3COC3)C2)c([N+](=O)[O-])c1)c1ccc(C2=CCC(N3CCCC3c3ccccc3C3CC3)CC2)cc1Oc1cnc2[nH]ccc2c1` (stereo partly drawn) [Example G37, 3-((1H-pyrrolo[2,3-b]pyridin-5-yl)oxy)-4′-(2-(2-cyclopropylphenyl)pyrrolidin-1-yl)-N-((3-nitro-4-((((R)-1-(oxetan-3-yl)pyrrolidin-3-yl)methyl)amino)phenyl)sulfonyl)-2′,3′,4′,5′-tetrahydro-[1,1′-biphenyl]-4-carboxamide], the 50% inhibitory concentration (IC50) in test [1] (setting [7]) worked out at 103 nM; in test [2] (setting [6]), 6630 nM.
On to `Cc1ccc(C2CC2)c(C2CCCN2C2CC=C(c3ccc(C(=O)NS(=O)(=O)c4ccc(NCC5CCOCC5)c([N+](=O)[O-])c4)c(Oc4cnc5[nH]ccc5c4)c3)CC2)c1` (stereo not drawn) [Example C170, 3-((1H-pyrrolo[2,3-b]pyridin-5-yl)oxy)-4′-(2-(2-cyclopropyl-5-methylphenyl)pyrrolidin-1-yl)-N-((3-nitro-4-(((tetrahydro-2H-pyran-4-yl)methyl)amino)phenyl)sulfonyl)-2′,3′,4′,5′-tetrahydro-[1,1′-biphenyl]-4-carboxamide], for which the half-maximal inhibitory concentration (IC50) in test [1] (setting [7]) is 118 nM; in test [2] (setting [6]), greater than 10000 nM.
`O=C(NS(=O)(=O)c1ccc(OCC2CCOCC2)c([N+](=O)[O-])c1)c1ccc(C2=CCC(N3CCCC3c3ccccc3C3CC3)CC2)cc1Oc1cnc2[nH]ccc2c1` (stereo not drawn) [Example G20, 3-((1H-pyrrolo[2,3-b]pyridin-5-yl)oxy)-4′-(2-(2-cyclopropylphenyl)pyrrolidin-1-yl)-N-((3-nitro-4-((tetrahydro-2H -pyran-4-yl)methoxy)phenyl)sulfonyl)-2′,3′,4′,5′-tetrahydro-[1,1′-biphenyl]-4-carboxamide]: the half-inhibitory concentration (IC50) is 53 nM in test [1] (setting [7]) and greater than 10000 nM in test [2] (setting [6]).
Turning to `CN1CCC(n2nccc2C2CCCN2c2ccc(-c3ccc(C(=O)NS(=O)(=O)c4ccc(NCC5CCOCC5)c([N+](=O)[O-])c4)c(Oc4cnc5[nH]ccc5c4)c3)cc2)CC1` (stereo not drawn) [Example A139, 3-((1H-pyrrolo[2,3-h]pyridin-5-yl)oxy)-4′-(2-(1-(1-methylpiperidin-4-yl)-1H-pyrazol-5-yl)pyrrolidin-1-yl)-N-((3-nitro-4-(((tetrahydro-2H-pyran-4-yl)methyl)amino)phenyl)sulfonyl)-[1,1′-biphenyl]-4-carboxamide], the IC50 was 2320 nM in test [1] (setting [3]) and greater than 10000 nM in test [2] (setting [6]).
For `CN(C)CCCc1ccccc1C1CCCN1c1ccc(-c2ccc(C(=O)NS(=O)(=O)c3ccc(NCC4CCOCC4)c([N+](=O)[O-])c3)c(Oc3cnc4[nH]ccc4c3)c2)cc1` (stereo not drawn) [Example A131, 3-((1H-pyrrolo[2,3-b]pyridin-5-yl)oxy)-4′-(2-(2-(3-(dimethylamino)propyl)phenyl)pyrrolidin-1-yl)-N-((3-nitro-4-(((tetrahydro-2H-pyran-4-yl)methyl)amino)phenyl)sulfonyl)-[1,1′-biphenyl]-4-carboxamide], the IC50 in test [1] (setting [3]) was determined as 16 nM; in test [2] (setting [6]) it was 1350 nM.
In the case of `CN1C2CCC1CN(c1ccccc1[C@H]1CCCN1c1ccc(-c3ccc(C(=O)NS(=O)(=O)c4ccc(NCC5CCOCC5)c([N+](=O)[O-])c4)c(Oc4cnc5[nH]ccc5c4)c3)cc1)C2` (stereo in doubt) [Example A119, 3-((1H-pyrrolo[2,3-b]pyridin-5-yl)oxy)-4′(2-(2-(8-methyl-3,8-diazabicyclo[3.2.1]octan-3-yl)phenyl)pyrrolidin-1-yl)-N-((3-nitro-4-(((tetrahydro-2H-pyran-4-yl)methyl)amino)phenyl)sulfonyl)-[1,1′-biphenyl]-4-carboxamide], the IC50 in test [1] (setting [3]) is 38 nM; in test [2] (setting [6]), greater than 1000 nM.
Consider `O=C(NS(=O)(=O)c1ccc(NCC2CCOCC2)c([N+](=O)[O-])c1)c1ccc(-c2ccc(N3CC4CCCC4C3c3ccccc3C3CC3)cc2)cc1Oc1cnc2[nH]ccc2c1` (stereo not drawn) [Example A78, 3-((1H-pyrrolo[2,3-b]pyridin-5-yl)oxy)-4′-(1-(2-cyclopropylphenyl)hexahydrocyclopenta[c]pyrrol-2(1H)-yl)-N-((3-nitro-4-(((tetrahydro-2H-pyran-4-yl)methyl)amino)phenyl)sulfonyl)-[1,1′-biphenyl]-4-carboxamide], for which the IC50 in test [1] (setting [3]) is 1410 nM; in test [2] (setting [6]), greater than 10000 nM.
As for `O=C(NS(=O)(=O)c1ccc(NCC2CCOCC2)c([N+](=O)[O-])c1)c1ccc(N2CCC3(CC2)CC(N2CC4CCCC4C2c2ccccc2C2CC2)C3)cc1Oc1cnc2[nH]ccc2c1` (stereo not drawn) [Example F88, 2-((1H-pyrrolo[2,3-b]pyridin-5-yl)oxy)-4-(2-(1-(2-cyclopropylphenyl)hexahydrocyclopenta[c]pyrrol-2(1H)-yl)-7-azaspiro[3.5]nonan-7-yl)-N-((3-nitro-4-(((tetrahydro-2H-pyran-4-yl)methyl)amino)phenyl)sulfonyl)benzamide], the half-inhibitory concentration (IC50) turned out to be 13 nM in test [1] (setting [3]) and 6980 nM in test [2] (setting [6]).
As for `CN(C)CC(=O)N1CCOC(CNc2ccc(S(=O)(=O)NC(=O)c3ccc(C4=CCC(N5CCCC5c5ccccc5C5CC5)CC4)cc3Oc3cnc4[nH]ccc4c3)cc2[N+](=O)[O-])C1` (stereo not drawn) [Example G18, 3-((1H-pyrrolo[2,3-b]pyridin-5-yl)oxy)-4′-(2-(2-cyclopropylphenyl)pyrrolidin-1-yl)-N-((4-(((4-(dimethylglycyl)morpholin-2-yl)methyl)amino)-3-nitrophenyl)sulfonyl)-2′,3′,4′,5′-tetrahydro-[1,1′-biphenyl]-4-carboxamide], the figures for the IC50 in test [1] (setting [7]) and in test [2] (setting [6]) were 39 nM and greater than 10000 nM, respectively.
As to `O=C(NS(=O)(=O)c1ccc(NCC2CCOCC2)c([N+](=O)[O-])c1)c1ccc(N2CCC3(CC2)CC(N2CC(F)(F)CC2c2ccccc2C2CC2)C3)cc1Oc1cnc2[nH]ccc2c1` (stereo not drawn) [Example F83, 2-((1H-pyrrolo[2,3-b]pyridin-5-yl)oxy)-4-(2-(2-(2-cyclopropylphenyl)-4,4-difluoropyrrolidin-1-yl)-7-azaspiro[3.5]nonan-7-yl)-N-((3-nitro-4-(((tetrahydro-2H-pyran-4-yl)methyl)amino)phenyl)sulfonyl)benzamide], the IC50 was found to be 60 nM in test [1] (setting [3]) and 4830 nM in test [2] (setting [6]).

Values taken from patent publication US11420968B2 (priority 2018, dated 2022).
